Measurements taken from PubChem BioAssay (NCATS).
The other results are listed elsewhere or left out. The main result of the screen is listed elsewhere. These columns were measured beside it and carry no call. Potencies come from curve fits of mixed quality, noted in brackets.

Assay: qHTS drug screen for cell cycle checkpoint inhibitors in PARPi-resistant BRCA-mutant ovarian cancer cell lines. (AID 1963452)
Settings: PEO1/OlaR viability, CellTiter-Glo luminescence, 96 h; measured here: PEO4 viability
How it was run: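 PEO1, PEO4 and PEO1/OlaR ovarian cancer cells, 600 per well, exposed 96 h at 37C to a dilution series. Viability read by CellTiter-Glo luminescence, normalized to DMSO and empty wells; activity summarized as Z-AUC.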
Tags give direction and shape of the fitted curve.

SMILES	AC50
O=C(O)C1=CC(O)C(O)[C@H](O)C1 (some centres undefined)	1.23 µM [falling, partial curve, poor fit]
CC1CCC(C(=O)N(c2cc(C#CC(C)(C)C)sc2C(=O)O)C2CCC(O)CC2)CC1 (centres undefined)	19.5 µM [falling, single point]
COc1ccc(CC2=NN3C([C@@H](CCc4ccccc4)[C@@H](C)O)=NC(C)C3C(=O)N2)cc1OC (some centres undefined)	17.4 µM [falling, partial curve, poor fit]
CN(C)C[C@@H]1CCn2cc(c3ccccc32)C2=C(C(=O)NC2=O)c2cn(c3ccccc23)CCO1	0.436 µM [falling, partial curve, poor fit]
CN(CCO)C1CCN(c2ccc(Nc3ncc4c5ccnc(F)c5n(C5CCCC5)c4n3)nc2)CC1	1.34 µM [falling, partial curve, poor fit]
O=C(O)Cn1nnc(-c2cc(N3CCC(Oc4cc(F)ccc4Br)CC3)no2)n1	0.436 µM [falling, full curve, poor fit]
CNc1nc(Nc2cnn([C@H]3CCN(C4COC4)C[C@@H]3F)c2Cl)ncc1C(F)(F)F	27.5 µM [falling, single point]
CC1=C2C[C@H]3[C@@H](CC[C@@H]4C[C@H](NS(C)(=O)=O)CC[C@@]43C)[C@@H]2CC[C@@]2(C1)O[C@@H]1C[C@H](C)CN[C@H]1[C@H]2C	17.4 µM [falling, partial curve]
O=C(O)CSCC(=O)NC1CCSC1=O (centres undefined)	12.3 µM [rising, partial curve, poor fit]
